The results in this text go back to PubChem BioAssay AID360 (National Center for Advancing Translational Sciences (NCATS), 2006).

The structures appear in SMILES notation. About 550 (1.1%) of roughly 48,000 compounds were called active. Another 4% or so got no clear call; they are omitted. No stated cut-off is given here; in the data, active means potency below about 15 µM; inconclusive means mostly about 16 µM to 33 µM; inactive means weaker than that. The list shows a part of the results.
Potency means the concentration at half of the fitted maximal effect.

UniProt P04062, sequence (P04062 whole entry, looked up): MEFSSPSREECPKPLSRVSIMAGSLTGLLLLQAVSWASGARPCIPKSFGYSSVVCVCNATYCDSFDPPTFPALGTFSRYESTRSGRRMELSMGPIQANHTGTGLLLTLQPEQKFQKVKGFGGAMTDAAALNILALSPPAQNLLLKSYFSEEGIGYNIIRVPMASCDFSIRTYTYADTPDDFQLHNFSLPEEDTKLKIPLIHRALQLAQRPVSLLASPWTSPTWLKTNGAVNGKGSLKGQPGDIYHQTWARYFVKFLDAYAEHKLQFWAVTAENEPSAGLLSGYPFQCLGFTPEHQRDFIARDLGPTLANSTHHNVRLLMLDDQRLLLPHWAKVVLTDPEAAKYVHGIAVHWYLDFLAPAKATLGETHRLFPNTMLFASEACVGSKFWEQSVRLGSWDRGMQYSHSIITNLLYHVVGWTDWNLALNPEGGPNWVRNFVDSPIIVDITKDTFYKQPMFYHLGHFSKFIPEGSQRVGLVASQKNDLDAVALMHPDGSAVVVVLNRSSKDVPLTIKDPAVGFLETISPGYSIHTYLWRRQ

The assay has as its target Lysosomal acid glucosylceramidase (Homo sapiens) (UniProt P04062). Nature of the assay: Glucocerebrosidase.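 Further: the screen sought inhibitors.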 To be noted: purified enzyme, resorufin glucoside fluorescence (screen aimed at inhibitors), 20 min; series mostly up to 77 µM. In short, it runs like this:
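Normal human glucocerebrosidase (0.2 nM final) was assayed with resorufin β-D-glucopyranoside (30 uM final) in 50mM citric acid/KH2PO4, 10mM sodium taurocholate, 0.01% tween-20, pH 5.9. Compounds were titrated; fluorescence (Ex 548, Em 600) read after 20 min at RT.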
Turning to `CS(=O)(=O)N1CCCC(C(=O)NCc2ccccn2)C1` (centres undefined), the Potency was inactive: > 76.9 µM.

Turning to `CCCn1c(N2CCN(CC(=O)c3c[nH]c4ccccc34)CC2)nc2c1c(=O)[nH]c(=O)n2C`, the Potency is inactive: > 76.9 µM.

`CCC(=O)NCC(c1cccs1)N1CCOCC1` (centres undefined): the Potency is inactive: > 76.9 µM. As for `Cc1ccccc1Nc1nc(N)nc(CN2C(=O)NC3(CCCCC3C)C2=O)n1` (centres undefined), the Potency is inactive: > 76.9 µM. The figure for `COC(=O)CSc1nc2ncc(Cl)cc2[nH]1` is inactive: > 76.9 µM; for `Cc1cc(C)nc(SCC(=O)c2cc3ccccc3oc2=O)n1` it is inactive: > 76.9 µM; for `Cn1nnnc1SCC(=O)N1c2ccccc2Sc2ccc(Cl)cc21` it is inactive: > 76.9 µM. For the compound `N#Cc1nc(COc2ccc(F)cc2)oc1N1CCN(Cc2ccccc2)CC1`, the Potency was inactive: > 76.9 µM. With `CCC(C)(C)n1nnnc1C(c1cc2ccc(OC)cc2[nH]c1=O)N1CCN(C2CCCCC2)CC1` (centres undefined), the Potency was inactive: > 76.9 µM. As for `CCC1Oc2ccc(C)cc2N(CC(=O)NCCN2CCCCCC2)C1=O` (centres undefined), the figure is inactive: > 76.9 µM. As for `Cc1c(Cl)cccc1-n1ccnc1SCC(=O)O`, the figure is inactive: > 76.9 µM. The figure for `O=C(c1ccco1)N1CCN(S(=O)(=O)c2ccc3c(c2)CCN3C(=O)C2CCC2)CC1` is inactive: > 76.9 µM; for `Cc1ccc(Cn2nnc(C(=O)Nc3cccc(C)c3C)c2N)cc1` it is inactive: > 76.9 µM.

Turning to `O=c1ccsn1Cc1ccccc1`, the Potency was inactive: > 76.9 µM. The figure for `CCC(=O)NC1(C(F)(F)F)C(=O)Nc2c1c(=O)n(C)c(=O)n2C` (centres undefined) is inactive: > 76.9 µM. The figure for `CC1C=Cc2ccccc2N1C(=O)c1ccccc1` (centres undefined) is inactive: > 76.9 µM; for `CC1Cc2ccccc2N1C(=O)CCS(=O)(=O)c1cccc2nonc12` (centres undefined) it is inactive: > 76.9 µM. As for `CN(C(=O)c1cnccn1)c1nnc(-c2cnccn2)s1`, the figure is inactive: > 76.9 µM; as for `CCn1ncc(Br)c1C(=O)Nc1ccc(Cl)cn1`, inactive: > 76.9 µM. For `Cc1ccc(OCn2c(=O)sc3ccccc32)cc1`, the Potency was inactive: > 76.9 µM.

With `O=c1c2ccccc2nnn1CSc1nc2sc3c(c2c(=O)n1CC1CCCO1)CCC3` (centres undefined), the Potency was inactive: > 76.9 µM.

On to `Cc1cc(-c2ccc(Cl)cc2)n2nc(N)nc2n1`, for which the Potency is inactive: > 76.9 µM. `O=C1CCc2cc(S(=O)(=O)N3CCN(c4cccc(C(F)(F)F)c4)CC3)ccc2N1`: the Potency was inactive: > 76.9 µM. The figure for `CCN(CCNC(=O)C1CCN(S(C)(=O)=O)CC1)c1ccccc1` is inactive: > 76.9 µM; for `O=C(Nc1ccc(Cl)c(Cl)c1)Nc1cc(C(=O)N2CCOCC2)ccc1N1CCCCC1` it is inactive: > 76.9 µM; for `COc1ccc(C2=NOC(C(=O)NC3CCCCC3)C2)cc1OC` (centres undefined) it is inactive: > 76.9 µM. The figure for `CCOC(=O)c1ccc(-c2nnc(-c3ccc(Cl)cc3Cl)o2)cc1` is inactive: > 76.9 µM; for `CS(=O)(=O)N(CC(=O)Nc1cccc(F)c1)Cc1ccccc1` it is inactive: > 76.9 µM; for `COc1ccc(-n2nc(C(=O)NCC(=O)NCC3CCCO3)c3ccccc3c2=O)c(OC)c1` (centres undefined) it is inactive: > 76.9 µM. As to `CCn1c(CNc2ccc(OC)cc2)nnc1SCC(=O)c1ccc(OC)cc1`, the Potency was inactive: > 76.9 µM. As for `CCOc1ccc(-c2cc(C(=O)NCCCN3CCN(CC)CC3)c3ccccc3n2)cc1`, the figure is inactive: > 76.9 µM. On to `CCOc1ccccc1NC(=O)NC1CCN(CC(=O)Nc2ccc3c(c2)OCCO3)CC1`, for which the Potency is inactive: > 76.9 µM. As for `CCOC(=O)c1ccc(COc2nc3ccccc3nc2-c2ccccc2NC(C)=O)o1`, the figure is inactive: > 76.9 µM. Regarding `CCCOc1ccccc1NC(=O)CC1Nc2ccccc2NC1=O` (centres undefined), the Potency is active: 13.9 µM.

For `COc1ccc(-c2nc(CS(=O)(=O)CC(=O)NCCc3cc(OC)ccc3OC)c(C)o2)cc1`, the Potency was inactive: > 76.9 µM.

Consider `CCC(=O)N1CCCc2cc(S(=O)(=O)N3CCC(N4CCCCC4)CC3)ccc21`, for which the Potency is inactive: > 76.9 µM. As for `C=CCOc1ccc(Cl)cc1C(=O)O`, the figure is inactive: > 76.9 µM; as for `COc1ccc(-c2nnc3sc(COc4ccc(C)cc4)nn23)cc1`, inactive: > 76.9 µM. As for `CCCCn1c(Cl)nc2c1c(=O)n(C)c(=O)n2C`, the figure is inactive: > 76.9 µM; as for `Nc1c(C(=O)NC2CCCCC2)nsc1C(=O)OCC(=O)NC1CCCCC1`, inactive: > 76.9 µM.

On to `O=C(Nc1ccccc1N1CCN(c2ccccc2)CC1)C1CCCCC1`, for which the Potency was inactive: > 76.9 µM. As for `CC(C)N(C(=O)CSc1nnc(NC(=O)C2CCC2)s1)C(C)C`, the figure is inactive: > 76.9 µM. As for `CCc1c(C(=O)Nc2cc(C)ccc2OC)[nH]c(C)c1C(C)=O`, the figure is inactive: > 76.9 µM; as for `Cc1cc(C)n(-c2nc3c(c(=O)[nH]c(=O)n3C)n2CC(O)COc2ccccc2)n1` (centres undefined), inactive: > 76.9 µM; as for `CNc1nc2c(c(=O)n(C)c(=O)n2C)n1Cc1ccccc1`, inactive: > 76.9 µM. As to `Cc1ccc2cc(CN(Cc3ccco3)C(=O)c3ccccc3)c(=O)[nH]c2c1C`, the Potency is inactive: > 76.9 µM. Consider `Cn1c(N2CCC(C(N)=O)CC2)nc2c1c(=O)n(Cc1ccc(Br)cc1)c(=O)n2C`, for which the Potency is inactive: > 76.9 µM. The figure for `O=C(Cc1cccs1)N1CCCC(c2nc3c(nnn3Cc3ccc(F)cc3)c(=O)[nH]2)C1` (centres undefined) is inactive: > 76.9 µM; for `CCNC(=O)CC1C(=O)N(c2ccccc2)C(=O)N1CCc1ccc(OC)cc1` (centres undefined) it is inactive: > 76.9 µM; for `CCOc1cc(N2CCOCC2)c(OCC)cc1NC(=O)CN1C(=O)NC(Cc2ccccc2)C1=O` (centres undefined) it is inactive: > 76.9 µM. For `Cc1ccccc1C(=O)N1CCCN(C(=O)c2ccccc2C)CC1`, the Potency is inactive: > 76.9 µM. For the compound `Cc1ccc(N2CC(C(=O)N3CCc4ccccc4C3)CC2=O)cc1` (centres undefined), the Potency is inactive: > 76.9 µM. As for `COc1ccc(N2CCN(C(c3cccs3)C(C)NC(=O)c3ccco3)CC2)cc1` (centres undefined), the figure is inactive: > 76.9 µM; as for `Cc1cc(OC(=O)N2CCCCC2)cc(C)c1Cl`, inactive: > 76.9 µM; as for `O=C(CCNS(=O)(=O)c1cccc2nsnc12)Nc1ccc2c(c1)OCCO2`, inactive: > 76.9 µM. Turning to `O=C(Nc1ccc2c(c1)CCC2)C1COc2ccccc2O1` (centres undefined), the Potency was inactive: > 76.9 µM. As for `CN1C(=S)SC(/[N+]([O-])=C\c2cccs2)C1(C)C` (centres undefined), the figure is inactive: > 76.9 µM. Turning to `COC(=O)NCCOc1cc(C)ccc1C`, the Potency was inactive: > 76.9 µM.

As for `Cc1[nH]c2ccccc2c1CC(=O)O`, the Potency was inactive: > 76.9 µM.

Take `O=C1CC(c2cccc(F)c2)C2=C(CCCC2=O)N1` (centres undefined): the Potency is inactive: > 76.9 µM. `O=C(COc1ccc(S(=O)(=O)N2CCCC2)cc1)NCCC1=CCCCC1`: the Potency was inactive: > 76.9 µM. With `O=c1nc(-c2ccccc2)c2cc(Cl)ccc2[nH]1`, the Potency was inactive: > 76.9 µM.

Consider `O=C(CSc1nc2ccccc2c(=O)n1Cc1ccco1)N1CCCCCC1`, for which the Potency was inactive: > 76.9 µM. The figure for `CC(C)Oc1cc2oc(=O)c3c(c2cc1Cl)CCC3` is inactive: > 76.9 µM; for `O=C(c1ccco1)[C@@H]1[C@@H]2C(=O)N(c3ccccc3)C(=O)[C@@H]2C2c3ccccc3C=CN21` (some centres undefined) it is inactive: > 76.9 µM; for `CCCCCc1c(C)nc(Nc2nc(C)c3cc(OC)ccc3n2)[nH]c1=O` it is inactive: > 76.9 µM.

In the case of `CCOc1ccc(N2C(=O)c3cccnc3C2=O)cc1`, the Potency is inactive: > 76.9 µM. The figure for `Cc1c(/C(O)=C2/C(=O)C(=O)N(CCN3CCOCC3)C2c2ccco2)cnn1-c1ccccc1` (centres undefined) is inactive: > 76.9 µM; for `Cc1csc(N(C)C(=O)CSc2nnc(COc3cccc4ccccc34)o2)n1` it is “inactive”; for `COc1ccc(S(=O)(=O)N(C)CC(=O)N2CCC(C)CC2)cc1Cl` it is inactive: > 76.9 µM. The figure for `COc1ccc(S(=O)(=O)N(C)C2CCS(=O)(=O)C2)cc1OC` (centres undefined) is inactive: > 76.9 µM; for `COc1ccc2c(c1)N(C(=O)CSc1n[nH]c(C)n1)C(C)(C)C=C2C` it is inactive: > 76.9 µM; for `CCOC(=O)CSc1nnc(CNC(=O)c2cccs2)n1-c1cc(C)ccc1C` it is inactive: > 76.9 µM. As for `CCCn1nnc(NC(=O)COc2cc(C)ccc2C(C)C)n1`, the figure is inactive: > 76.9 µM; as for `CCOC(=O)c1c(C)c(C(=O)NCCN2CCOCC2)c(C)n1CC`, inactive: > 76.9 µM; as for `COc1cc2c(C(=O)N3CCCc4ccccc43)cn(C)c(=O)c2cc1OC`, inactive: > 76.9 µM.

As for `Cc1nc(SCC(=O)Nc2c(C)n(C)n(-c3ccccc3)c2=O)n[nH]1`, the Potency is inactive: > 76.9 µM. Turning to `O=C(NCc1ccccc1)c1ccc(F)c(S(=O)(=O)N2CCOCC2)c1`, the Potency is inactive: > 76.9 µM.

Consider `CCOC(=O)CC(NS(=O)(=O)c1ccc(NC(C)=O)cc1)c1ccc(OCC)cc1` (centres undefined), for which the Potency is inactive: > 76.9 µM. `CCOc1ccc(Cl)cc1S(=O)(=O)n1cnc2ccccc21`: the Potency was inactive: > 76.9 µM. As for `COc1cc2c(cc1OC)CN(Cc1nc3ccsc3c(=O)[nH]1)CC2`, the figure is inactive: > 76.9 µM.

`O=c1cc(NCc2ccccc2)c2ccccc2o1`: the Potency was inactive: > 76.9 µM. Regarding `O=C(NCCc1ccccn1)c1ccc(COc2ccccc2)o1`, the Potency result was “inactive”. The figure for `Cc1ccc(/C=C/S(=O)(=O)N2CCC(C(=O)O)CC2)cc1` is inactive: > 76.9 µM; for `Cc1nc(NC(=O)CSc2nc3cccnc3n2C2CCCCC2)sc1C` it is inactive: > 76.9 µM; for `COC(=O)c1[nH]c2cccc(OC)c2c1NC(=O)CN1CCOCC1` it is inactive: > 76.9 µM. With `COc1ccc(N(C(=O)CNC(=O)c2ccco2)C(C(=O)NC2CCCCC2)c2ccco2)cc1` (centres undefined), the Potency is inactive: > 76.9 µM.

As for `O=C(NCc1ccco1)c1cc2n(n1)C(C(F)(F)F)CC(c1ccc(F)cc1)N2` (centres undefined), the Potency is inactive: > 76.9 µM. As for `Cc1cc(NS(=O)(=O)c2ccc(-c3ccccc3)cc2)no1`, the figure is inactive: > 76.9 µM.
